Assay results published in the supplement of paper PMC10126150.
Values marked as one replicate rest on one cluster of the flow cell; about a third of the high ones do not repeat.

System: ATP
Test: switch fluorescence ratio, 500 uM ATP over buffer (Cy3 cluster intensity, sum of 5 cycles each) (fold (ratio)); higher = stronger signal-on switching upon ATP binding; sequences stand for … in TCGTCGGCAGCGTCAGATGTGTATAAGAGACAGTTTTTTTTTTTTTTTTTTTTTTTTT…TC
Details: aptamer strand: ATP DNA aptamer (quencher-CACCTGGGGGAGTATTGCGGAGGAAGG + anchor), 100 nM annealed; ATP concentration: 500 uM; one replicate
Procedure, shortened: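 After annealing to 100 nM quencher-labelled ATP aptamer, Cy3-labelled switching-strand clusters on a modified Illumina MiSeq flow-cell were imaged in selection buffer. A second image followed after 15 min with 500 uM ATP at 22 °C, and five such buffer/ATP cycles were done, each separated by NaOH stripping and re-annealing. The fluorescence ratio, averaged per switch-domain sequence, is summed target-cycle over summed buffer-cycle Cy3 intensity per cluster, with clusters outside 100-1000 RFU excluded.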
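Also: ATP exposure 15 min at 22 °C before imaging.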

| Sequence | switch fluorescence ratio |
| --- | --- |
| CAGAATTCCT | 0.997 |
| TTTTCTTATT | 0.993 |
| GCTTAAGCGT | 0.996 |
| AGATTCTAAA | 1 |
| GGCTGGAACG | 1.05 |
| TCTAATCAT | 1.02 |
| GTTCTGACCG | 1.11 |
| ATTCTCCCG | 1.04 |
| TCCAAGGAGC | 1.05 |
| CGTATCATTT | 0.959 |
| AGTATCCAC | 1.03 |
| GTATGTAAAA | 0.947 |
| GGTGTTATAC | 1.04 |
| ATTTCACGGG | 1.06 |
| GCTCCCGGCC | 1.06 |
| ACTAGCGGTG | 1.03 |
| TTGCAGGGAG | 0.964 |
| GAGCTAACCC | 1.02 |
| TAGAGTATTC | 1.04 |
| CGTGGCCAGG | 1.05 |
| ACCGGCTGCT | 0.992 |
| GCCTCGGGCC | 0.975 |
| TCTGAGGTGA | 1.09 |

| Sequence | switch fluorescence ratio |
| --- | --- |
| TTGCATGATC | 1.52 |
| GATTTCGGTG | 1 |
| TCACGAACAT | 1.33 |
| ATTAATAGAC | 1 |
| ATTGCTTAGT | 0.964 |
| AATTTCGCCG | 1.03 |
| GCATCGGAGG | 1.03 |
| TATTCAAGGC | 1.11 |
| CATTCATTGT | 0.982 |
| CAATACTAAA | 1.06 |
| ATGGGCAAGT | 1 |
| CAAGTTGAA | 1.03 |
| TGCCACGGAG | 0.991 |
| TACCTCGAGC | 0.956 |
| TCACAGGTGT | 6.98 |
| AACGGTGTCT | 1.02 |
| TGATTCGAAC | 1 |
| GACTGTTCAG | 0.964 |
| CGGCTCTGGA | 1.09 |
| CACTTACTAA | 1.22 |
| GCGTTCGGAA | 1.04 |
| ACGGAAAGTG | 0.945 |
| GGCTCAGTAA | 1.31 |

| Sequence | switch fluorescence ratio |
| --- | --- |
| CCTATCCTAA | 0.981 |
| TTGAATGTG | 0.964 |
| CGAACAGCAC | 1.6 |
| CCCATATGTT | 1.03 |
| CTACGGAAAT | 1.13 |
| GGGTTAATCA | 1 |
| TTAGTCACTT | 0.986 |
| ATCCAGTCAG | 0.996 |
| TTCAACACAT | 0.976 |
| TTGTGCCCCT | 1 |
| TTTCCGCTTG | 1.25 |
| CTGGTAGTTG | 0.992 |
| AGGTTAGGAT | 1.01 |
| CTCAGGGGCC | 1.03 |
| TTCAAGAGCT | 0.957 |
| CATGGGGATG | 0.96 |
| GTTACGATAT | 1.2 |
| CGGGTCGTTC | 0.987 |
| TATACTAGAT | 0.979 |
| AGAGATTCC | 1.02 |
| GATTCGCCGG | 0.966 |
| TAGAGTTAGA | 0.955 |
| GACAGCTAGT | 1.03 |

| Sequence | switch fluorescence ratio |
| --- | --- |
| ATCGGCGACG | 1.06 |
| GATCTGTGCC | 0.939 |
| AATCGTAATT | 1.04 |
| TTAACGGTTG | 0.949 |
| CCAGTAGTAA | 1.44 |
| CCGTTTCATG | 0.99 |
| AGTGAGCTAA | 1.02 |
| ATGCGCTAAA | 0.991 |
| TTCAACGAAG | 0.999 |
| TTACCGCGGT | 0.961 |
| GGATGATGAG | 1 |
| CAGAAGTATC | 1.09 |
| TTCCTAATGA | 1.01 |
| AAAGGGATTG | 0.993 |
| CACTAGTCCC | 1.03 |
| CACGCTGGGT | 1.04 |
| GTAACTCTGA | 0.982 |
| GTTAGCTGGG | 1.02 |
| TGGTAAGGAC | 1.06 |
| GTCACCGTTC | 1 |
| AGAAGGGAGC | 0.994 |
| CTTAACTGTA | 1.07 |
| AACGGCATAA | 1.11 |

| Sequence | switch fluorescence ratio |
| --- | --- |
| TGAAGTGCGA | 0.989 |
| AAGCACGATT | 1.22 |
| TGGTATGAG | 1.01 |
| CGTACTATAG | 1 |
| TATACGGGGT | 0.989 |
| AACAAGAAGG | 1.01 |
| CACGGAAAAG | 0.971 |
| CTAACCCTAC | 1.26 |
| GGTCCCGTCA | 0.954 |
| TCGGAATTTG | 1.09 |
| GCCGAACGGG | 1.06 |
| CAATAGTAGG | 1 |
| CATTTAATCC | 0.975 |
| TACGGCGTTG | 1 |
| AGCAACTAGT | 1.02 |
| AGCTAATGCA | 1.01 |
| TGTCACTTGA | 0.991 |
| CTGGCCAACT | 0.961 |
| CTCAAACCTT | 2.42 |
| ATTCCGTTAA | 1.09 |
| TCTGAGTTAT | 1.03 |
| GGTAGGGTTG | 0.971 |
| TGACTAAAAA | 1.03 |

| Sequence | switch fluorescence ratio |
| --- | --- |
| CTCGTTATTA | 0.983 |
| GATCCAGGTT | 1.13 |
| CGTTTAAAGG | 1.01 |
| ATGCGCGTCC | 1.06 |
| TTGCGTCGAA | 0.977 |
| GTGTCCCACT | 1.02 |
| GTAGTGCGGT | 0.977 |
| GGACCATCAG | 0.951 |
| GTAAAGGAAC | 1.02 |
| GGGTGTACCA | 0.973 |
| GTTACTGAGA | 1.04 |
| GGCCCTCCTT | 0.974 |
| TTTGTTCGT | 1.02 |
| AGAAATATGG | 0.987 |
| AGCTTTTAGG | 0.995 |
| TGATTTTCCG | 1.24 |
| CTGGGGACTT | 0.996 |
| TACCACAAAA | 1.01 |
| GCCTCGCGAT | 2.75 |
| GAATTCTGAA | 0.975 |
| AAATCATCT | 1 |
| TAGAGGGGCC | 1.02 |
| TGATGAGTAT | 1.02 |

| Sequence | switch fluorescence ratio |
| --- | --- |
| TTGGTTTGAT | 0.992 |
| TTAATGAGG | 1.07 |
| ACCACGACAC | 1.99 |
| CGCCTGAGCG | 0.961 |
| CTTAAGTCTC | 0.998 |
| ACAGGTCTAA | 1.05 |
| AGGTCGCTC | 1.03 |
| CTGGAGGAGA | 1.01 |
| GGGTGTACCG | 0.988 |
| TCAAAGCATA | 1.43 |
| ATGGAAATGA | 0.994 |
| TTCGCCAGGA | 1.04 |
| ACAATATAT | 1.02 |
| AATTGGCCTC | 1.03 |
| GGCGTTAAAA | 0.966 |
| AGCAGCAGCT | 1.03 |
| CATGTGCTTT | 0.993 |
| CCTTCCTAAC | 4.49 |
| GTCAACTGCT | 1 |
